The values below are quoted from earlier work in US20080213253A1, “COMBINATION THERAPY FOR THE TREATMENT OF CANCER” (DYAX CORP., priority 2007, published 2008).

The target of data set [1] is T1, Tie complex (Tie1 and Tie2) (Homo sapiens, UniProt P35590).
T1 sequence (P35590 22-1138): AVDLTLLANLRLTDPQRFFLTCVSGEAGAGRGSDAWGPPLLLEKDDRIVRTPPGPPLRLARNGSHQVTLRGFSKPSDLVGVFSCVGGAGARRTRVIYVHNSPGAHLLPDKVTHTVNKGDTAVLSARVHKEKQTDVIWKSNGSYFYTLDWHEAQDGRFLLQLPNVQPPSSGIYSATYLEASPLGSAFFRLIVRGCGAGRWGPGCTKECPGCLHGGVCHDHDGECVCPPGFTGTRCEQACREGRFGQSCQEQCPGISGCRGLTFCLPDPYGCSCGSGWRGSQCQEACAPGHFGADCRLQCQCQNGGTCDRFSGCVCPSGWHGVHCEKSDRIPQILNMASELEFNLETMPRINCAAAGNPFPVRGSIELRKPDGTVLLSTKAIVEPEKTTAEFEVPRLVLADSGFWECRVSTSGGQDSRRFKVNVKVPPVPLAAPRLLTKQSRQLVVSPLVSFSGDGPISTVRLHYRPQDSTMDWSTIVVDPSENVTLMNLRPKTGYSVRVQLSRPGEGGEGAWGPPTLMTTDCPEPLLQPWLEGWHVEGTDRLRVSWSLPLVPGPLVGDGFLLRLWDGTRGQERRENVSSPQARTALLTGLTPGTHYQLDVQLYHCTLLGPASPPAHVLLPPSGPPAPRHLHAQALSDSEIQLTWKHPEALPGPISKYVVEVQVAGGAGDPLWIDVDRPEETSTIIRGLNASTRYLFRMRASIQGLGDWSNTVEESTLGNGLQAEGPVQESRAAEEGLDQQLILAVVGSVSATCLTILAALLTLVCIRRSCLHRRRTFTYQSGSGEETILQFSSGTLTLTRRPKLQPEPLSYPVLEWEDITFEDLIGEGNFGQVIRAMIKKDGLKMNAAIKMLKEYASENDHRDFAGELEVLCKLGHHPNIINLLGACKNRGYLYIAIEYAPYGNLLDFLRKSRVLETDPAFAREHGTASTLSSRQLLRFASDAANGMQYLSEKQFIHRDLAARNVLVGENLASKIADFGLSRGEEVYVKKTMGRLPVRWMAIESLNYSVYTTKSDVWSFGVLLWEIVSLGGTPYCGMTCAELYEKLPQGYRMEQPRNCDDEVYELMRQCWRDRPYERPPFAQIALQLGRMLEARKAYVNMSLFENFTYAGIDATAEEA
The note with it: statement in words, no data shown.

A further data set concerns the target T2, Tie1 (Homo sapiens, UniProt P35590).
T2 sequence (P35590 22-1138): T1 sequence (P35590 22-1138)
The note with it: statement in words, no data shown.

B1: DX-2220: full length, IgG1, germlined human anti-Tie1 antibody E3b (SEQ ID NO:700, 701) (antibody)
heavy: EVQLLESGGGLVQPGGSLRLSCAASGFTFSMYGMVWVRQAPGKGLEWVSVISPSGGNTGYADSVKGRFTISRDNSKNTLYLQMNSLRAEDTAVYYCARAPRGYSYGYYYWGQGTLVTVSS[human IgG1 constant region left out]
light: DIQMTQSPSSLSASVGDRVTITCRASQGIGHYLAWYQQKPGKVPKLLIYTASTLQSGVPSRFSGSGSGTDFTLTISSLQPEDVATYYCQQFNSYPHTFGQGTRLEIKRTVAAPSVFIFPPSDEQLKSGTASVVCLLNNFYPREAKVQWKVDNALQSGNSQESVTEQDSKDSTYSLSSTLTLSKADYEKHKVYACEVTHQGLSSPVTKSFNRGEC
With B1, the Tie complex formation result in data set [1] is on record as “induce Tie complex formation”. Moreover, the “down modulation of Tie1 from the cell surface” value in the data set with Tie1 is listed as “down modulation of Tie1 from the cell surface”.
